Paper PMC4336329 (PLoS ONE, 2015)
Hit rate of the full screen: of about 310,000 compounds, about 14,000 (4.5%) showed an effect of 50% or more. The effect is printed as a negative number. Some of the results follow.

target: human ether-à-go-go-related gene (hERG) potassium channel (human, UniProt Q12809); test: primary screen, population patch clamp on CHO cells stably expressing hERG
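Further: peak tail current of the secondary pulse compared with the same well before compound.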

human ether-à-go-go-related gene (hERG) potassium channel, sequence (Q12809 whole entry, looked up): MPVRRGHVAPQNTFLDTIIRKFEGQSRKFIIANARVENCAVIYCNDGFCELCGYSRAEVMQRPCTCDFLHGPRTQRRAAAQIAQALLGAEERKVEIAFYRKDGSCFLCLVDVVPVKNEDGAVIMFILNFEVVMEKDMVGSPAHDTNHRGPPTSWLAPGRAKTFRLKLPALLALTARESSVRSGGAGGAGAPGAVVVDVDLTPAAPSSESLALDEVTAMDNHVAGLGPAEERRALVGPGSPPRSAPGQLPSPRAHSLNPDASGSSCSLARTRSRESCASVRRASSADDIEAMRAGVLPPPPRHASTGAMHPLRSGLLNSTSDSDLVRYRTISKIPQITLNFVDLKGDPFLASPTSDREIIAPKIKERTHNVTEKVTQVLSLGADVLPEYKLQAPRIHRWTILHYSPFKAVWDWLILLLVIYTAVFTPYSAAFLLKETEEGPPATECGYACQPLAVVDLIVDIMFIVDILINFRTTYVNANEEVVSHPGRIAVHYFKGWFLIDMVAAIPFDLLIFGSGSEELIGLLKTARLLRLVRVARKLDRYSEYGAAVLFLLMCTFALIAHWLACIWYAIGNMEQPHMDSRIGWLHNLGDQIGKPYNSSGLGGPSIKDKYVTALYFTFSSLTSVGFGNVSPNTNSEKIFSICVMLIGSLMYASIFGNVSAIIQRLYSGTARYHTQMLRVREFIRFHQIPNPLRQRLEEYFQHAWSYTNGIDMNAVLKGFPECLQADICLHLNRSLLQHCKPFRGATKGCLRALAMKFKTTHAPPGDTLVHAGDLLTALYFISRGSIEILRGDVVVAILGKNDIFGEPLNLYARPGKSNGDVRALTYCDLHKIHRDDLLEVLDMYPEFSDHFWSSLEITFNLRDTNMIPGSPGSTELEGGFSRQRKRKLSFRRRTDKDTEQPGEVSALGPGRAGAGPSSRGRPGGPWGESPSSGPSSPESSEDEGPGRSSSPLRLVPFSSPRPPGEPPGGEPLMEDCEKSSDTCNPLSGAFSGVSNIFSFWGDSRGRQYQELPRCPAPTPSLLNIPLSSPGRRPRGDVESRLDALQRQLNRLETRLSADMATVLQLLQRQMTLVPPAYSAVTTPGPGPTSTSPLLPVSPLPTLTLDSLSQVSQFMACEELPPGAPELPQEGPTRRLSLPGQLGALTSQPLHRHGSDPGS

SMILES | hERG current change (%, negative = inhibition) at 10uM [%]
O=C(Nc1ccc(N2CCN(C(=O)c3ccco3)CC2)cc1)c1ccccc1 | -0.203
CCOc1ccc(N2CC(C(=O)Nc3ccc(S(=O)(=O)N4CCCC4)cc3)CC2=O)cc1 (stereo not drawn) | -11.7
Cc1ccc(Cn2ccccc2=N)cc1.Cl | 9.85
CCOC(=O)c1sc(NC(=O)c2ccc(S(=O)(=O)N3CCOCC3)cc2)nc1-c1ccccc1 | -27.6
O=C(Cc1cccc2ccccc12)NN1C(=O)/C(=C\c2cccnc2)SC1=S | 15.3
CC(C)(C)OC(=O)N/N=C\c1ccc(OC(=O)c2ccco2)cc1 | 8.67
CN1CCN(NC(=O)c2cccc(S(=O)(=O)N3CCCCCC3)c2)CC1.Cl | -4.12
CCCNC(=O)c1cccc(COCC(F)(F)C(F)F)c1 | -5.62
C=CCn1c(SCCOc2ccc(OC)cc2)nnc1C(C)NC(=O)c1ccc(OC)cc1 (stereo not drawn) | 9.13
Cc1ccc(-n2cc(-c3ccc([N+](=O)[O-])cc3)[nH]c2=S)c(C)c1 | -51.3
Cc1ccc(C)c(NC(=O)c2cc(-c3ccccc3O)n[nH]2)c1 | 17.4
COC(=O)Nc1nnc(SCc2ccc(C)cc2)s1 | 19.5
Cn1c(=O)c2c(nc(Br)n2Cc2nnc(N)s2)n(C)c1=O | 14.8
COCC1OS(=O)(=O)NC(CC(=O)SC(C)(C)C)C1C (stereo not drawn) | 7.04
Cc1nn(CCOc2cccc(Br)c2)c(C)c1[N+](=O)[O-] | 6.29
COc1ccc(N(CC(=O)Nc2ccccc2C(=O)NCC(C)C)S(C)(=O)=O)cc1 | 8.6
COc1ccc([N+](=O)[O-])cc1Nc1ncnc2ccccc12 | 12.7
Cc1ccc(S(=O)(=O)/C(=C/Cl)NC(=O)c2ccccc2)cc1 | -0.508
Cc1cccc(N2CCN(C(=O)c3ccc(Cl)c(S(=O)(=O)N4CCc5ccccc5C4)c3)CC2)c1C | 6.09
CC(=O)N(C1CC(C)C(C#N)(C#N)C1(C#N)C#N)N(C)C (stereo not drawn) | -14.5
COc1ccc(N(CC(=O)Nc2cccc3ccccc23)S(C)(=O)=O)cc1 | -1.75
COc1ccc(CCN)cc1O.Cl | 13.2

SMILES | hERG current change (%, negative = inhibition) at 10uM [%]
CC#CCN(CC#CC)S(=O)(=O)c1ccc(-n2cnnn2)c(OC)c1 | -3.48
COc1ccccc1CN(C)C(=O)c1ccc2c(c1)NC(=O)CS2 | -8.83
CC(C)(C)c1ccc(C(CC(=O)O)NC(=O)Cc2ccccc2)cc1 (stereo not drawn) | 15.3
O=C(NC(=S)Nc1ccc(O)cc1)c1cncc(Br)c1 | -8.75
CCCN(CC(=O)Nc1ccccc1C)C(=O)/C=C/c1ccc(OCC)c(OC)c1 | -46.7
CC(=O)NS(=O)(=O)c1ccc(NC(=O)NC2CCCCC2)cc1 | -4.93
CCc1nc(SCC(=O)c2cccc([N+](=O)[O-])c2)n[nH]1 | 3.01
CCSc1nc2c(c(=O)[nH]1)C(c1ccc(C)cc1)C1=C(CCCC1=O)N2 (stereo not drawn) | 33.2
O=c1c2ccccc2c(C=NCc2ccccn2)c(O)n1-c1ccccc1 | 14.2
Cc1cc(C)n(-c2cc(-n3nc(C)cc3C)ncn2)n1 | -3.06
O=C(Nc1cccc(-c2cn3ccccc3n2)c1)c1cccc(Cl)c1 | 4.75
CCOC(=O)/C(=C/c1ccc(OC(=O)c2ccncc2)cc1)C(C)=O | -49.6
O=C(CCc1c[nH]c2ccccc12)N1CCN(c2ccc(F)cc2)CC1 | -39.6
O=C(/C=C/c1ccccc1Cl)NNC(=O)c1cccs1 | 40.6
COc1ccc(C2NC(c3ccc(OC)cc3)C([N+](=O)[O-])C(C)(C)C2[N+](=O)[O-])cc1 (stereo not drawn) | 41.2
O=C(c1cccc(N2C(=O)C3CC=CCC3C2=O)c1)N1CCCc2ccccc21 (stereo not drawn) | -19.2
C/C(=N\NC(=O)CSCc1ccccc1Br)c1cccc([N+](=O)[O-])c1 | 15.5
Cn1c(N)c(C(=O)COC(=O)c2ccc(S(=O)(=O)N3CCCCC3)cc2)c(=O)n(C)c1=O | 29.5
COc1ccnc(Nc2ccc(C)c(C)c2)c1C#N | -10.3
CCn1nc(NS(=O)(=O)c2ccc([N+](=O)[O-])cc2)c2cc3ccccc3nc21 | 19.3
COC(=O)c1cc(NC(=O)c2cc(-c3ccc(C(F)(F)F)cc3)oc2C(F)(F)F)ccc1N1CCOCC1 | 7.53
COc1ccc2occ(C(C)=O)c2c1 | 1.12

SMILES | hERG current change (%, negative = inhibition) at 10uM [%]
Cc1ccc(C(=O)NNC(=O)c2ccccc2O)cc1S(=O)(=O)N1CCCCC1 | 5.69
O=C(Cc1ccc(Cl)cc1)Nc1cccc(S(=O)(=O)N2CCCCC2)c1 | -19.9
Cc1cc(S(=O)(=O)NC(C)C)ccc1OCC(=O)Nc1ccc2c(c1)OCCO2 | 15.1
COCc1ccc(O)c2ncccc12 | -11.2
Cn1c(SCc2ccccn2)nc2c1c(=O)[nH]c(=O)n2C | 18.8
COc1ccccc1N(C)S(=O)(=O)c1ccc(Cl)c(C(=O)NCc2cccnc2)c1 | -14.9
CNC(=S)NNC(=O)c1ccccc1Cl | 8.64
CCn1c(=O)cc(SCC(=O)NCc2ccccn2)c2ccccc21 | -0.329
O=C(O)c1ccc(-c2noc(-c3ccccc3F)n2)cc1 | 21.6
CC(=O)c1ccc(OCC(O)CN2CCN(S(=O)(=O)c3c(C)cc(C)cc3C)CC2)cc1.O=C(O)C(=O)O (stereo not drawn) | -14.6
O=C(O/N=C/c1ccc2c(c1)OCO2)c1ccc([N+](=O)[O-])cc1 | 22.3
CC1CN(C(=O)COC(=O)Cc2ccc(Cl)cc2)CC(C)O1 (stereo not drawn) | -2.2
Cc1ccc(CSc2nnc(-c3cccnc3)o2)cc1 | -10.1
O=C(c1nc2ccc(Cl)cn2c1CN1CCC(O)CC1)N1CCc2ccccc2C1 | 7.94
O=c1cc(C(F)(F)F)nc(-c2cccnc2)[nH]1 | 17.2
Cc1cccc(C)c1NC(=O)C(c1ccc([N+](=O)[O-])cc1)N1CCCCC1 (stereo not drawn) | 0.685
COc1ccccc1S(=O)(=O)n1cc(Cc2ccccc2)c(N)n1 | -8.6
COc1cccc(-c2nc3sc4c(c3c(=O)[nH]2)CCCCC4)c1 | 14.8
CCCCn1c(N)c(N(CCC(C)C)C(=O)c2oc3ccc(OCC)cc3c2C)c(=O)[nH]c1=O | -13.9
CC1(OC(=O)C2CCCC2)C(=O)C=C2C=C(c3ccsc3)N(C(CO)CO)C=C2C1=O (stereo not drawn) | -20.1
O=C(NC1CC1)c1ccc(S(=O)(=O)NC2CCCCCC2)cc1 | -8.91
CC(C)[C@H](NS(=O)(=O)c1ccc2c(c1)OCCO2)C(=O)OCC(=O)Nc1ccccc1Cl | -2.82

SMILES | hERG current change (%, negative = inhibition) at 10uM [%]
CSc1cccc(NC(=S)N(C(C)C)C(C)c2ccccn2)c1 (stereo not drawn) | -23.4
COc1cccc(C(=O)Nc2nnc(C3CCCO3)s2)c1 (stereo not drawn) | -2.53
O=C(Nc1ccc(Cn2cccn2)cc1)c1ccc(COc2ccccc2Br)cc1 | 10.4
COc1ccc(/C=C2/C(=O)ON=C2C)cc1Cl | 32.3
COc1cccc([C@@H]2Oc3ccc(Br)cc3C(=O)[C@H]2OC(=O)NC2CCCC2)c1 | 7.49
CC(C)CCNC(=O)c1ccc2c(c1)ncn2C1CCCC1 | -54.8
Cc1ccc(-c2cnc(NCc3cc4c(cc3[N+](=O)[O-])OCO4)n2C)cc1C | -48.6
CCOc1ccc(C(=O)Nn2cnnc2)cc1OCC | -70.4
COc1ccc(OC)c(-n2c(-c3ccc(O)cc3O)n[nH]c2=S)c1 | 17.6
CCOc1cc(-c2noc(CCCC(N)=O)n2)cc(Br)c1OC | 2.99
COc1ccc(C(=O)O)cc1S(=O)(=O)Nc1ccccc1C(=O)NCc1ccc2c(c1)OCO2 | 13.8
Cc1ccc(NC(=O)c2ccc(CN3CCc4ccccc4C3)cc2)cc1 | 2.91
Cc1ccc(CCC(=O)Nc2ncc(Cc3cc(Cl)ccc3Cl)s2)o1 | 27.7
CCCS(=O)(=O)N1CCC(C(=O)NCC2CCCO2)CC1 (stereo not drawn) | 1.15
COc1ccc(CCNC(=O)C2CCN(C(=O)c3cccc(Cl)c3)CC2)cc1OC | 11.5
Cc1ccccc1OCC(=O)Nc1cccc(NC(=O)c2ccco2)c1 | -32
CC(=O)NC(Cc1c[nH]c2ccccc12)C(=O)N1CCN(S(=O)(=O)c2ccccc2)CC1 (stereo not drawn) | 9.01
CCCCCCCCCCCC(=O)N1CC(=O)NC(=O)C1 | 7.19
Cc1ccc2c(c1)C(=O)C(=O)N2CC1COc2ccccc2O1 (stereo not drawn) | 12.1
CN(CC(=O)Nc1ccccc1Cl)C(=O)COC(=O)CSc1ccc(F)cc1 | -45.2
CC(C)(C)NC(=O)c1cc(C(C)(C)C)c(O)c(C(C)(C)C)c1 | 4.79
